# Test results from the supplement of paper PMC3334620.
# The full ranking holds about 33,000 sequences; the median of “E-score (-0.5 to 0.5)” is about -0.04, and the highest 2% start at about 0.36. The list shows a part of the results.
# Target: T1, Hmlalpha2 (UniProt P0CY09)
# T1 sequence: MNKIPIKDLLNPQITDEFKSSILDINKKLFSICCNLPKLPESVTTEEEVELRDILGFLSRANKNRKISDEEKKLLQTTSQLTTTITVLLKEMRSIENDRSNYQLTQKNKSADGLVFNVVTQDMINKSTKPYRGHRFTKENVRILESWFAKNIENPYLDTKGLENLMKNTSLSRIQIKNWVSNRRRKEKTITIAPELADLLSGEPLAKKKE
# Test: PBM E-score (8-mer binding enrichment) (E-score (-0.5 to 0.5)); higher = stronger / more preferred TF binding; most listed sequences are background and not binding sites
# Conditions: protein concentration: 200 nM; construct: GST-full length
# Outline: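 Bound GST-tagged yeast transcription factors, applied at about 100-200 nM to double-stranded universal all-10-mer Agilent arrays, were detected with fluorescent anti-GST. Scans were normalised with masliner. A modified Wilcoxon-Mann-Whitney statistic, the E-score, was assigned to each ungapped eight-base word pooled with its reverse complement by the Universal PBM Analysis Suite.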
row,Sequence,PBM E-score
1,CTTTCTAA,0.138
2,ATACCCCA,-0.153
3,AATCTGGA,0.0142
4,AGCGGCTC,-0.117
5,GGCCATAA,-0.247
6,AATACATC,0.368
7,CCGGATAC,-0.186
8,CGAGAGAG,-0.108
9,CGAACGAG,-0.033
10,CCATTAGG,-0.244
11,GTCGTTGA,0.118
12,AACATTCA,0.0991
13,GGCGGCCC,-0.293
14,AATACGAC,0.151
15,ACTTTGGG,-0.24
16,AAGGTACG,0.0982
17,GTGAATGA,-0.00596
18,CAGACTGC,-0.127
19,ACTCGTAG,0.0597
20,AGACCGCG,0.0522
21,ACAATTAC,0.376
22,TCTAAGAA,0.128
23,AACCCCTA,-0.243
24,GCCAGCGC,-0.251
25,ATACTTGA,0.23

row,Sequence,PBM E-score
1,GCCGGGCA,-0.334
2,AGAGATAG,-0.0703
3,ACTGGTTG,-0.0324
4,ATCAACGG,0.00775
5,CCTATCAG,-0.143
6,CAGATACC,-0.251
7,AGCCGATC,-0.04
8,GAAAATGC,-0.0305
9,AGTCAGAC,-0.161
10,AGAGCCTG,-0.111
11,GCAATGCA,0.0279
12,CCACCTGG,-0.258
13,ATTTGTGC,0.0208
14,ATGTTTCG,0.211
15,CGTGGTAA,0.234
16,TAAGGAGA,-0.0786
17,ACCGCTAT,-0.124
18,ATCCACCG,-0.0829
19,CCCTTGAA,-0.138
20,CCTCTTTC,-0.349
21,GTCCACCA,-0.147
22,GCGTGAGC,-0.0629
23,CAGTTTGG,-0.232
24,GGTTCTAA,0.0008
25,CATTACAC,0.474

row,Sequence,PBM E-score
1,CGATATGC,-0.117
2,CTCTAACA,0.207
3,AAGTGGCG,-0.0817
4,CTGAAGGA,-0.321
5,CATTCTGG,-0.0567
6,AGTAGTCC,-0.0822
7,AATTCTTC,-0.00112
8,CTCTAGTA,0.0413
9,GCTCGTGA,-0.249
10,ACCACGAT,0.163
11,ACCCACCA,-0.209
12,CATCCGGA,-0.113
13,ATGTCGAA,0.347
14,GGGGCGGA,-0.415
15,TACACTCA,0.285
16,AATGAATG,0.0645
17,CTAAAACA,0.306
18,AGACTCAA,-0.0314
19,CTTAGAAC,0.139
20,CATTAGAG,-0.127
21,CCTCGGTC,-0.292
22,TGTTTTAA,0.382
23,CGAATGGA,-0.0134
24,AATTAAAA,0.216
25,CATACACA,0.336

row,Sequence,PBM E-score
1,ACGTTTAC,0.318
2,ATTCCCGA,-0.104
3,GGGCACAC,-0.25
4,CACAGGCC,0.0776
5,CATTTCGA,0.0151
6,CTGGAATC,-0.0553
7,GAGCGGGA,-0.161
8,TCATTGAA,0.00565
9,CATCTGGC,-0.125
10,AAATTATA,0.167
11,CCGGAAGG,-0.237
12,AAGCCAAA,0.0236
13,ACGTTGAG,0.151
14,CTTTAACC,-0.0213
15,AACTATGC,0.121
16,ATAAACTG,0.0806
17,CATAGCCC,-0.0214
18,TAGAATAA,0.237
19,CTTGGTGA,-0.214
20,AATTAAGC,0.0787
21,CCTGAGTA,0.17
22,CTCAGTAA,-0.0267
23,CTGGCCGC,-0.162
24,GAATAAGA,-0.145
25,AGCGATGG,-0.278

row,Sequence,PBM E-score
1,AAATGCTG,0.229
2,GAGACTAC,-0.0959
3,AAGACTGA,-0.0912
4,CCGAAAAC,0.0225
5,GTCGCTGA,-0.154
6,GACCACAA,-0.253
7,AATGGTAG,0.0738
8,CCAATTAC,0.299
9,GTACTAAC,0.263
10,CATCAAGG,-0.102
11,ACATACAG,0.336
12,CTCCGTGA,-0.182
13,ACCTACAG,-0.0898
14,CTAACTGC,-0.166
15,CGCAGAGC,-0.128
16,ATGCCCCC,-0.26
17,AACCCCCC,-0.355
18,GCATCTTA,-0.0174
19,ATCCCGCA,0.103
20,AACCGTCG,0.0585
21,CCTATGCG,-0.0726
22,CATCGTGC,0.0775
23,AAAAGCGA,0.0689
24,GTCCTTGA,0.0679
25,GCTTAGGA,-0.268

row,Sequence,PBM E-score
1,ATTATAAG,0.0165
2,GAGGGCAC,-0.357
3,CGGAGCCA,-0.0994
4,CCATTACA,0.435
5,ACCCTTTA,0.12
6,CAATATCG,-0.129
7,AGCCCCCC,-0.344
8,ACGGCAAA,-0.00563
9,ATTGGACC,-0.235
10,GCTGGCAC,-0.0272
11,CAGCACCC,-0.206
12,ATTTGTCC,0.0162
13,ATCAAGAG,-0.0252
14,CTCACCAA,-0.15
15,ACGTGCGA,0.0576
16,ATGGAATC,0.114
17,TAGCTATA,-0.0261
18,CTCATGGC,-0.127
19,GCCCTAAC,0.0268
20,AAGGACTG,-0.201
21,GTTCCCGA,-0.0578
22,CTAATCAC,0.0641
23,CTTTCTCC,-0.234
24,CTGATGCC,-0.132
25,ACTACATA,0.378

row,Sequence,PBM E-score
1,AACCGCAA,-0.00406
2,GTCTCTAA,-0.0508
3,CCGTCTAG,-0.148
4,ACACAGTC,0.215
5,CCAAAGCC,-0.274
6,CGGCCACA,-0.177
7,GCATGCTA,0.00271
8,ACGACCCA,-0.0906
9,ATGTATAC,0.435
10,CATTGATC,0.0793
11,GAACTTTA,0.0729
12,GACGAGCC,-0.0177
13,CGGGCCTA,-0.294
14,CAAAAGGC,-0.0677
15,CATCCGGG,-0.166
16,TTAAACAA,0.274
17,CATTTTCC,-0.0141
18,GGCACGCC,-0.35
19,GTATACGA,0.15
20,AATGAACA,0.224
21,AACCTCAT,0.118
22,GCAACAGA,-0.00297
